{"source": "PubChem BioAssay AID504333", "about": "(National Center for Advancing Translational Sciences (NCATS), 2011)", "note": "In all, about 360,000 compounds went through this assay and about 16,000 (4.4%) were called active. Inconclusive means that the source gave no clear call. Such entries were picked first, then a sample of the others. The call rests on the fitted dose curve; in most records, active means well fitted inhibition curve with a large enough effect; inconclusive means small, poorly fitted or top-dose-only effect; inactive means no such curve, though single readings can be large or run the other way. Potencies beside an inconclusive call are fits to weak or partial responses and may not hold up. On the % scale 0 is the no-effect control and ±100 the full control effect; potency means the concentration at half of the fitted maximal effect; tags describe the fitted curve by direction and shape.", "data": [{"biological_target": "Bromodomain adjacent to zinc finger domain protein 2B (Homo sapiens) (UniProt Q9UIF8)", "sequence (Q9UIF8 whole entry, looked up, the tested form may be a part)": "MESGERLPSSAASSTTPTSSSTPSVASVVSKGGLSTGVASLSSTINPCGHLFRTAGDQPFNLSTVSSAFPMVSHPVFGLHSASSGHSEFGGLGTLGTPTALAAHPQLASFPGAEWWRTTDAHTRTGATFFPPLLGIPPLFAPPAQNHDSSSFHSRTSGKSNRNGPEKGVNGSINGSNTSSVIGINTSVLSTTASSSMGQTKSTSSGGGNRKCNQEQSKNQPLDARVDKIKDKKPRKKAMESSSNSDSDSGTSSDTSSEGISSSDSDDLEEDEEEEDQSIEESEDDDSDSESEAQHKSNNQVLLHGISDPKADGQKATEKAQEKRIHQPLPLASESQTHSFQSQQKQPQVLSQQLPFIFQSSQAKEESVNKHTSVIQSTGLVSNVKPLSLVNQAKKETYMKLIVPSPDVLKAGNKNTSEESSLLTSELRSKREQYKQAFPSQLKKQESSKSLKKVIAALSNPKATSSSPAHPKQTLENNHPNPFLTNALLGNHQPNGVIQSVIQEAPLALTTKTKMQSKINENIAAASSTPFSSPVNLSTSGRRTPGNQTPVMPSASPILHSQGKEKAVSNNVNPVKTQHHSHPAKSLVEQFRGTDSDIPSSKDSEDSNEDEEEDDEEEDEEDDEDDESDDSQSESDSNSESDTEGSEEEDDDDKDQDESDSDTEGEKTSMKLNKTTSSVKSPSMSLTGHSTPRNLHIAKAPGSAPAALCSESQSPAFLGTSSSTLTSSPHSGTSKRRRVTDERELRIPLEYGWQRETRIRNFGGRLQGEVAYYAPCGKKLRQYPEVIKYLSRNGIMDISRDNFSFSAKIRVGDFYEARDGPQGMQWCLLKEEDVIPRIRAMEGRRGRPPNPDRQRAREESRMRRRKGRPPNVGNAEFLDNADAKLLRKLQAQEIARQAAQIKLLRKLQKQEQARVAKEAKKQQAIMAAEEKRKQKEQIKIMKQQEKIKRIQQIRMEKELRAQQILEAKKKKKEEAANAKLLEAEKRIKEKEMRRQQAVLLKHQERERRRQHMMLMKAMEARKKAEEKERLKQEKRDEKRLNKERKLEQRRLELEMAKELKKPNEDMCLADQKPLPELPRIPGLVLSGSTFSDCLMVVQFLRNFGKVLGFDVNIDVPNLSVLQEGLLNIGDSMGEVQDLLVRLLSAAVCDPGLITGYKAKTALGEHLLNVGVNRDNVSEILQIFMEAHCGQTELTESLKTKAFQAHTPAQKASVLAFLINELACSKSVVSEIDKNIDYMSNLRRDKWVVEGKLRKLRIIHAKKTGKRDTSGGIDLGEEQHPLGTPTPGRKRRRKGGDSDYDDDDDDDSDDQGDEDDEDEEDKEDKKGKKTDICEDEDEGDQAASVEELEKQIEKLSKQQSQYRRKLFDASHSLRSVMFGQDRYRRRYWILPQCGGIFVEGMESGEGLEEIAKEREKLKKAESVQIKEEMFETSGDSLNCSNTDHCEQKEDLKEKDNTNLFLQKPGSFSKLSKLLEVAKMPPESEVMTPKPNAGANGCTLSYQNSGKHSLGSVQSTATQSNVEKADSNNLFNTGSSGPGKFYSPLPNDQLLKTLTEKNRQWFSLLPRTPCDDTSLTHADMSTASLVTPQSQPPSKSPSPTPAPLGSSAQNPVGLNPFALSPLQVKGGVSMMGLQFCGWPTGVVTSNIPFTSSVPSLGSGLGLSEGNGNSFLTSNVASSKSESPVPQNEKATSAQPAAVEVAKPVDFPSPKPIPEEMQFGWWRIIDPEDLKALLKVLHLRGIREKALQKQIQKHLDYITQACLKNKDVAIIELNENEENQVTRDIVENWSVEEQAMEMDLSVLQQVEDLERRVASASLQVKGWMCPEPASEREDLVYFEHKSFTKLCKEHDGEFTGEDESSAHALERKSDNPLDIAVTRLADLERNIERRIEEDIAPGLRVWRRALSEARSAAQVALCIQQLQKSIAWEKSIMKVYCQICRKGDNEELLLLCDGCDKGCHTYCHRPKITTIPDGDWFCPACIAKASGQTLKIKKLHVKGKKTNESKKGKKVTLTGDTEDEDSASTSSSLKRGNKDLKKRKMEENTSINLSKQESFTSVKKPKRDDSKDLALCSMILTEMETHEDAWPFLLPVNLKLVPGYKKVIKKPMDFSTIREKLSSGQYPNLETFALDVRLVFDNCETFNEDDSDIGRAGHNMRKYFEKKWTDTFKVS", "experiment": "qHTS Assay for Inhibitors of BAZ2B; further: nearly all actives have a fitted effect of over 60% in size", "details": "AlphaScreen BAZ2B-H3K14Ac peptide displacement; activity change, negative = inhibition: at 114 µM (top of the series) unless noted", "method_in_brief": "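AlphaScreen displacement: compounds (up to 110uM) incubated 30 min at room temperature with a preformed 50 nM BAZ2B/50 nM biotinylated H3K14Ac peptide complex in PBS pH 7.4 with Tween-20. Donor and acceptor beads at 10 ug/mL final added, 20 min light-protected before reading.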", "values": [{"smiles": "O=C(O)CCN1C(=O)c2ccncc2C1=O", "activity change, negative = inhibition": "inactive: -28.6%"}, {"smiles": "CC(=O)NS(=O)(=O)c1ccc(N=c2ssc3c2-c2cc(C)ccc2NC3(C)C)cc1", "Potency": "inconclusive: 39.8 µM [inhibitor, partial curve]"}, {"smiles": "CN1CCN(CCCNC(=O)c2ccc(Cn3c(=S)[nH]c4ccc(Br)cc4c3=O)cc2)CC1", "Potency": "inconclusive: 31.6 µM [inhibitor, full curve]"}, {"smiles": "COc1ccccc1NC(=O)CN1C(=O)NC2(CCCCCCC2)C1=O", "Potency": "inconclusive: 89.1 µM [inhibitor, single point]"}, {"smiles": "COc1ccccc1N1CCN(C(=O)c2sc3nc(-c4ccccc4)cn3c2C)CC1", "Potency": "inconclusive: 31.6 µM [inhibitor, full curve, poor fit]"}, {"smiles": "Cc1cc(N2CCOCC2)nc2ccc(NC(=S)N3CCN(Cc4ccccc4)CC3)cc12", "Potency": "inconclusive: 44.7 µM [inhibitor, partial curve]"}, {"smiles": "Cc1cccc(-c2nc(S(=O)(=O)c3ccc(Cl)cc3)c(N3CCCCCC3)o2)c1", "Potency": "inconclusive: 8.91 µM [inhibitor, full curve]"}, {"smiles": "CCCOc1cc(N(CC)CC)ccc1/C=C(/C#N)c1nc2ccc(C)cc2[nH]1", "Potency": "inconclusive: 79.4 µM [inhibitor, single point]"}, {"smiles": "CCN1CCN(C2=C(NS(=O)(=O)c3ccc(Br)cc3)C(=O)c3ccccc3C2=O)CC1", "Potency": "active: 44.7 µM"}, {"smiles": "Nc1nc(NC(=O)C(Cl)(Cl)Cl)nn1-c1ccccc1", "Potency": "active: 8.91 µM"}, {"smiles": "COc1ccc(NC(=O)Nc2ccc3c(c2)N(C)C(=O)CS3)cc1Cl", "Potency": "inconclusive: 89.1 µM [inhibitor, single point]"}, {"smiles": "CCN(c1ccc(NC(=O)COC(=O)c2cccs2)cc1)C(C)C", "Potency": "inconclusive: 89.1 µM [inhibitor, single point]"}, {"smiles": "Cc1cc(C(=O)N/N=C/c2cc([N+](=O)[O-])cc(C)c2O)n[nH]1", "Potency": "active: 25.1 µM"}, {"smiles": "Cc1cccc(Cn2cc(/C=C(/C#N)C(=O)Nc3cccc(Cl)c3)c3ccccc32)c1", "activity change, negative = inhibition": "inactive: 2.54%"}, {"smiles": "O=C(NC(=S)Nn1cnnc1)c1cccc(Br)c1", "activity change, negative = inhibition": "inactive: -25.4%"}, {"smiles": "Cc1noc2c1C(c1ccc(N(C)C)cc1)C1=C(CC(C)(C)CC1=O)N2", "note": "(centres undefined)", "Potency": "inconclusive: 89.1 µM [inhibitor, single point]"}, {"smiles": "NC(c1ccccc1)c1cccnc1", "note": "(centres undefined)", "Potency": "inconclusive: 100 µM [inhibitor, single point]"}, {"smiles": "O=C(c1ccco1)N1CCN(C(=O)c2ccccc2[N+](=O)[O-])CC1", "Potency": "inconclusive: 89.1 µM [inhibitor, single point]"}, {"smiles": "COc1ccc(N2CCN(C(=O)CN3CCN(C(c4ccccc4)c4ccccc4)CC3)CC2)cc1", "Potency": "active: 50.1 µM"}]}]}
